Source: publication PMC4336329 (PLoS ONE, 2015)
In all, about 310,000 compounds went through this assay and about 2,200 (0.71%) showed an effect of 50% or more. The effect is printed as a negative number. The list shows a part of the results.

The molecules below were run against human ether-à-go-go-related gene (hERG) potassium channel (human, UniProt Q12809) (assay: primary screen, population patch clamp on CHO cells stably expressing hERG).
Chain of human ether-à-go-go-related gene (hERG) potassium channel (Q12809 whole entry, looked up): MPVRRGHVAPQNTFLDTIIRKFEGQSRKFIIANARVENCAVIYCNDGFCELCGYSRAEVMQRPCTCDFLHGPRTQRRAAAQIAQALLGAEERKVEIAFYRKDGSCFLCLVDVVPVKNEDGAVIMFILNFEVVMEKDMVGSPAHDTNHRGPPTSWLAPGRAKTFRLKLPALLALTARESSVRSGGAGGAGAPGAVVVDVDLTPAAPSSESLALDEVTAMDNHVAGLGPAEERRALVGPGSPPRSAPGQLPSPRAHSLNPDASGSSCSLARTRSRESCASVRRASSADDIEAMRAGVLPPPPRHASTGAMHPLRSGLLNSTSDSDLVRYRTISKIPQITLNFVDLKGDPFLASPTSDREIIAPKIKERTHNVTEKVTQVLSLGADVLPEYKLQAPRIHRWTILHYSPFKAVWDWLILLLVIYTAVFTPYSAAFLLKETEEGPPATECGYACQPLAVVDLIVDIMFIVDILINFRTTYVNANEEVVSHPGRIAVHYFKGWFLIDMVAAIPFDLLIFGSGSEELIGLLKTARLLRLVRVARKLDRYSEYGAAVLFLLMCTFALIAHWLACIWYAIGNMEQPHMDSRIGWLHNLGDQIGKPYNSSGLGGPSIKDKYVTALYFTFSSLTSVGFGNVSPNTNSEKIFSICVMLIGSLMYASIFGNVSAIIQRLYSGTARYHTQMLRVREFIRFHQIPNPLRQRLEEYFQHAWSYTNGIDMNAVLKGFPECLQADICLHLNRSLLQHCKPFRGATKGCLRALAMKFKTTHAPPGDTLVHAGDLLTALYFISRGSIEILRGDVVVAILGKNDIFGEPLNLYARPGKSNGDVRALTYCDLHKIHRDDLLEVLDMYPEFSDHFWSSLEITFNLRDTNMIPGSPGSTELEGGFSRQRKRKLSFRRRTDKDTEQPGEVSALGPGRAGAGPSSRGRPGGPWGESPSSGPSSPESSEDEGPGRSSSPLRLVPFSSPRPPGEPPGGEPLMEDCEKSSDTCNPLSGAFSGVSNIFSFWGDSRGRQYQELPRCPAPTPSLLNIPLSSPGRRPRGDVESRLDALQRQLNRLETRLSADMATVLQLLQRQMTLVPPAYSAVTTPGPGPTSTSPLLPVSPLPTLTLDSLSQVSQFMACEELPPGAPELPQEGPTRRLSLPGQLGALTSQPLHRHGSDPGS

In order of rising “hERG current change (%, negative = inhibition) at 1uM” value:
1. Cc1oc(-c2cccc(Cl)c2)nc1CN1CCC(C(=O)N2CCN(c3ccccn3)CC2)CC1  -44.6%
2. Cl.OC(COCC1COc2ccccc2O1)CN1CCc2ccccc2C1 (centres unmarked)  -28.1%
3. CCc1nc(NCC2CCCN2CC)c2nnn(Cc3ccccc3F)c2n1 (centres unmarked)  -22.9%
4. COCCSc1ccccc1C(=O)NCCCn1ccnc1  -10.6%
5. COc1ccc(/C=N/NC(=O)c2ccccc2[N+](=O)[O-])cc1CN1CCc2cc(OC)c(OC)cc2C1C (centres unmarked)  -10.4%
6. CC(C)[C@@H](CSc1ccccc1)N1CCN(Cc2ccccc2)CCC1=O  -7.86%
7. Cc1ccc(/C=C2\SC(=S)N(CCCC(=O)N3CCOCC3)C2=O)cc1  -7.65%
8. CS(=O)(=O)Nc1ccc(C2=NN(S(C)(=O)=O)C(c3ccc4nccnc4c3)C2)cc1 (centres unmarked)  -6.03%
9. CCCCOC(=O)Nc1ccc(OC)cc1S(=O)(=O)N1CCOCC1  -5.36%
10. COc1ccc(S(=O)(=O)CCC(=O)NCCc2cccc(C)c2)cc1  -3.81%
11. COc1ccccc1N1CCN(CCCNC(=O)Nc2ccccc2C)CC1  -3.8%
12. COCCn1c(SCC(=O)NNC(=O)c2ccc(OC)c(OC)c2)nc2ccccc2c1=O  -3.69%
13. CC1=CC(=O)N(c2cccc(C(F)(F)F)c2)C1c1ccc(Cl)cc1 (centres unmarked)  -3.67%
14. CCn1c(SCC(=O)Nc2ccc(N3CCOCC3)cc2)nnc1-c1ccc(OC)cc1  -2.01%
15. CC(NCC(O)COc1ccc(S(=O)(=O)N2CCOCC2)cc1)c1ccccc1 (centres unmarked)  -1.58%
16. COc1ccc(C(CNC(=O)Cc2ccc(Cl)c(Cl)c2)N2CCCCC2)cc1 (centres unmarked)  -0.779%
17. COc1cc(CN2CCCC(CO)(Cc3ccccc3C)C2)cc2c1OCO2 (centres unmarked)  -0.303%
18. O=[N+]([O-])c1cccc(S(=O)(=O)NCCCn2ccnc2)c1  0.375%
19. COc1ccccc1C(=O)NC(=S)/C=C1/N(C)c2ccccc2C1(C)C  0.693%
20. COc1ccc(-c2cc(C(=O)N3CCN(C(=O)c4ccccc4F)CC3)[nH]n2)cc1  0.943%
21. CCc1cc(C(=O)N2CCN(c3ccccc3OC)CC2)sc1C  1.68%
22. Cc1ccc(C(=O)COC(=O)c2cnccn2)cc1C  1.72%
23. CN(Cc1ccccc1)S(=O)(=O)c1ccc(OCC(=O)N2CCC(C(N)=O)CC2)cc1  2.08%
24. CCOC(=O)/C(N=Nc1sc(C(=O)OCC)c(C)c1C(=O)OCC)=C(\C)O  2.16%
25. Cl.OC(COc1ccc2ccccc2c1)CN1CCOCC1 (centres unmarked)  2.37%
26. CC1=CC(=C(C#N)C#N)C=C(C)N1CCN1CCNCC1  2.5%
27. COC(=O)c1c(C)nc(C)c2c(=O)oc3ccccc3c12  2.75%
28. Cc1cc(-c2c(C)[nH]n(-c3ccccc3)c2=O)n(-c2ccccc2)n1  2.93%
29. COc1ccc(C)cc1N(C(=O)c1ccco1)C(C(=O)NC1CCCC1)c1ccc(N2CCOCC2)cc1 (centres unmarked)  3.48%
30. Cc1ccc(CNC(=O)c2cc(S(=O)(=O)N3CCCCC3)ccc2N2CCOCC2)cc1  3.62%
31. COc1ccccc1C(C)NC(=O)CCOc1cccc(C)c1 (centres unmarked)  3.83%
32. O=C1N=C(N2CCN(c3cccc4ccccc34)CC2)S/C1=C/c1cccs1  4.84%
33. COc1ccc(-n2c(O)c(/C=N/n3cnnc3)c3ccccc3c2=O)cc1  5.02%
34. COc1ccc(-c2csc3nc[nH]c(=O)c23)cc1OC  5.27%
35. CC(O)C(NC(=O)OCc1ccccc1)C(=O)OCc1ccccc1 (centres unmarked)  5.3%
36. Cc1cc2ncc(S(=O)(=O)c3ccccc3)c(N)n2n1  5.52%
37. O=C(Nc1ncccc1O)c1cccc(S(=O)(=O)N2CCc3ccccc32)c1  5.58%
38. COc1cc2cc(Oc3ccc4ccc(=O)oc4c3)c(=O)oc2cc1OC(=O)C=C(C)C  5.86%
39. CCC(C)NS(=O)(=O)c1ccc(NS(C)(=O)=O)cc1 (centres unmarked)  6.28%
40. CC(=O)c1cccc(NC(=S)NC(=O)c2cccc(Cl)c2)c1  6.39%
41. COc1ccc(-n2nc3cc(C)c(N)cc3n2)cc1Cl  6.46%
42. CCN(CC)S(=O)(=O)c1ccc(N2CCOCC2)c(NC(=O)C23CC4CC(CC(Cl)(C4)C2)C3)c1  6.75%
43. O=C(NNS(=O)(=O)c1ccccc1)c1ccc(O)cc1  7.02%
44. CCOC(=O)c1ccc(N2C(=O)CC(N3CCCC(C)C3)C2=O)cc1 (centres unmarked)  7.58%
45. O=C(O)c1ccc2c(c1)C(=O)N(c1ncccn1)C2=O  7.75%
46. CCC1=C(OC(=O)N(CC)CC)N2C(=O)OC(=NCC3CC3)[C@]2(Cc2ccccc2)[C@H]2C1=CC[C@H]1C(=O)NC(=O)[C@H]12  8.34%
47. Cc1cccc(CC2SC(N)=NC2=O)c1.Cl (centres unmarked)  8.97%
48. Cc1cc(C)cc(NC(=O)c2ccc(S(=O)(=O)NCc3cccnc3)cc2)c1  9.11%
49. COc1cccc(NC(=S)NNC(=O)C(C)n2nc(C)c([N+](=O)[O-])c2C)c1 (centres unmarked)  9.18%
50. C[C@H](NC(=O)C1CCN(S(=O)(=O)c2ccccc2)CC1)C(=O)NCc1ccc(F)cc1  9.38%
51. COC(=O)c1ccc(Oc2coc3cc(OCc4cnn(-c5ccccc5)c4)ccc3c2=O)cc1  9.71%
52. COc1cccc2c1-c1c(C(=O)O)cccc1C2=O  9.72%
53. Cn1nnnc1N=N/C(=N/Nc1ccccc1)c1ccccc1  10.1%
54. CCCN(CC(=O)Nc1ccccc1C)C(=O)c1ccc2[nH]c3c(c2c1)CC(C)CC3 (centres unmarked)  10.2%
55. COc1ccccc1NS(=O)(=O)c1ccc(NN=C2CCCC2)c([N+](=O)[O-])c1  10.3%
56. O=C(O)C1=NN(c2ccccc2)C(=O)C1  10.7%
57. CC(=O)Nc1cccc(NC(=O)CSc2ccc(-c3cccnc3)nn2)c1  10.8%
58. CCOc1nc(C)cc(C)c1S(=O)(=O)c1cccc(C)c1  10.9%
59. Cc1ccc(C)n1-c1sc2c(c1C(=O)O)CCCC2  10.9%
60. CCOC(=O)c1c(Nc2ccccc2OCCOC)n[nH]c1C  11.1%
61. COc1ccc(-n2c(=O)cc(N3CCN(Cc4ccccc4)CC3)[nH]c2=O)cc1  11.1%
62. CCCCNC(=O)CSc1nc2ccc(NC(=O)CSc3nnc(N)s3)cc2s1  11.1%
63. COc1ccc(-c2csc3ncn(Cc4ccccc4)c(=O)c23)cc1  11.2%
64. COC(OC)C(C)NC(=O)NC(=O)c1ccccc1Cl (centres unmarked)  11.2%
65. O=C(O)c1ccc(N2CCCCC2)cc1O  11.3%
66. COc1ccccc1Nc1ccc(S(=O)(=O)N2CCCCC2)cc1[N+](=O)[O-]  11.3%
67. COc1cc(C(Nc2ccccn2)c2ccc3ccc(C)nc3c2O)cc(OC)c1O (centres unmarked)  11.5%
68. O=C(NCc1ccc(Cl)cc1)C1CCN(c2nnc(N3CCCC3=O)s2)CC1  11.6%
69. C/C(N)=C(/C#N)C(=O)CN1C(=O)NC(Cc2c[nH]c3ccccc23)C1=O (centres unmarked)  11.7%
70. CCN1C(=O)/C(=C2\C=Cc3ccccc3N2CC)SC1=S  12.1%
71. COc1cc2c(cc1OC)C(C)N(CC(=O)Nc1ccc(C)c(S(=O)(=O)N3CCOCC3)c1)CC2 (centres unmarked)  12.4%
72. COC(=O)c1oc2ccc(Cl)cc2c1NC(C)=O  12.8%
73. COc1ccc(NC(=O)/C(=C\c2cc(OC)c(OC)cc2[N+](=O)[O-])NC(=O)c2ccccc2)cc1  12.9%
74. CN1CCN(c2cc3c(cc2F)c(=O)c(C(=O)O)cn3CCF)CC1  13.1%
75. COCc1cc(C)nc(OCC(=O)N/N=C/c2ccc(C)cc2)c1C#N  13.3%
76. CCc1ccc(C(=O)COC(=O)[C@@H](NC(N)=O)[C@@H](C)CC)cc1  13.6%
77. CC(CN1CCCCC1)OC(=O)c1ccccc1Cl.Cl (centres unmarked)  13.6%
78. COC(=O)C(Cc1c[nH]c2ccccc12)NC(=O)c1ccccc1Br (centres unmarked)  13.8%
79. Cc1ccc(C(=O)CSc2nc3ccccc3c(=O)[nH]2)cc1C  15.4%
80. COc1ccc(CSc2nnc(-c3ccncc3)n2N)cc1  15.4%
81. CCOC(=O)Nc1ccc(C(=O)c2ccncc2)cc1  15.9%
82. Cc1ccc(N(Cc2ccccc2)C(=O)c2cccc(F)c2)cc1  16.8%
83. Nc1nc(SCC(=O)Nc2ccc(OCc3ccccc3)cc2)n[nH]1  18.3%
84. O=C(CCC1CCCCC1)Nc1cccc(C(=O)Nc2ccc(C(=O)O)cc2)c1  18.4%
85. CCc1ccc(N2C(=O)NC(=O)C(Cc3ccc(OC)cc3OC)C2=O)cc1 (centres unmarked)  18.6%
86. CCOc1ccc(NC(=O)CC(NCc2ccccn2)C(=O)O)cc1 (centres unmarked)  27.3%
